We go through 42 compounds from the supplement of paper PMC9135407.

“And” between values parts separate entries of the source, which are not always exact repeats. Equal values may be shown once. Where a name gives a salt, the structure may show the parent alone. Screen size: about 5,800 compounds; about 620 (11%) showed activity.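 Rule for the calls: active = score above a cut-off or among the top three wells of a plate; in these data no inactive exceeds 0.85.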 This is a selection; strong and weak results do not stand in their true shares.

The subject of this assay is primary human hepatic stellate cells (donor 1). Kind of assay: scaled lipid accumulation score (0 = DMSO-like, 1 = nortriptyline-like); higher = stronger HSC inactivation (lipid re-accumulation), active = hit call of the paper. The note with it: 48 h.
The mark [1] stands for this setting: library stock concentration: 1 mM.
[2] abbreviates: library stock concentration: 3.33 mM.
Where [3] appears, read: library stock concentration: 10 mM.
The mark [4] stands for this setting: library stock concentration: 7.6 mM.

Consider `COc1ccn(C)c(=O)c1C#N` [Ricinine], for which the “scaled lipid accumulation score” value is inactive: ≤ 0. As to `CCCCC/C=C\C/C=C\C/C=C\C/C=C\CCC(C)C(=O)NCCF` (stereo not given), the “scaled lipid accumulation score” value under setting [1] was inactive: 0.05. Consider `NC(=O)CN1CC(O)CC1=O` (stereo not given) [Oxiracetam], for which the “scaled lipid accumulation score” value reads like this: under setting [2], inactive: ≤ 0; under setting [3], inactive: ≤ -0.001 and inactive: ≤ -0.055. `CCCC(C)C1(CC)C(=O)NC(=S)NC1=O` (stereo not given) [Thiopental sodium]: under setting [4], the “scaled lipid accumulation score” value is inactive: 0.052. `COc1cc([C@@H]2c3cc4c(cc3[C@H](O)[C@H]3COC(=O)[C@@H]23)OCO4)cc(OC)c1OC` [Picropodophyllotoxin]: the “scaled lipid accumulation score” value under setting [3] was inactive: 0.514. Regarding `CCCCCCCCCCCCCCCCOC[C@H](COP(=O)([O-])OCC[N+](C)(C)C)OC(C)=O`, under setting [1], the “scaled lipid accumulation score” value was inactive: ≤ 0 and inactive: ≤ -0.021. As to `O[C@H]1[C@H]2[C@H](O)CCCN2C[C@H]1O` [swainsonine], the “scaled lipid accumulation score” value (library stock concentration: 28.9 mM) was inactive: 0.01. In the case of `CN1CCC(c2ccc(F)cc2)C(COc2ccc3c(c2)OCO3)C1` (stereo not given), for the setting “library stock concentration: 9.7 mM”, the “scaled lipid accumulation score” value was inactive: 0.664. Regarding `CN(C)C(=O)C(CCN1CCC(O)(c2ccc(Cl)cc2)CC1)(c1ccccc1)c1ccccc1.Cl` [Loperamide hydrochloride], under setting [3], the “scaled lipid accumulation score” value is active: 1.46.

Consider `O=C1C=C2C=C[C@@H]3C[C@@]2(O1)[C@H]1CCCCN31` [Securinine], for which the “scaled lipid accumulation score” value is inactive: ≤ 0. The “scaled lipid accumulation score” value under setting [3] is inactive: ≤ -0.027. Consider `CC(=O)C1=C(O)[C@@H]2[C@H]3c4c[nH]c5cccc(c45)C[C@H]3C(C)(C)N2C1=O` [Cyclopiazonic acid], for which the “scaled lipid accumulation score” value (library stock concentration: 14.9 mM) is inactive: 0.019.

On to `CC(=O)C1=C(O)[C@@H]2[C@H]3c4c[nH]c5cccc(c45)C[C@H]3C(C)(C)N2C1=O` [Cyclopiazonic Acid], for which, under setting [3], the “scaled lipid accumulation score” value was inactive: 0.021. On to `CN1CCC(c2c[nH]c3ccc(O)cc23)CC1`, for which the “scaled lipid accumulation score” value runs as follows: under setting [2], inactive: ≤ 0; under setting [3], inactive: 0.037 and inactive: 0.02 and inactive: ≤ -0.006. As to `COc1ccc2[nH]c3c(c2c1)CCN=C3C` [Methoxy-6-harmalan], the “scaled lipid accumulation score” value was inactive: 0.039. For `CC(N)Cc1c[nH]c2ccc(OCc3cccs3)cc12` (stereo not given), the “scaled lipid accumulation score” value under setting [1] is inactive: 0.315.

Regarding `C1=C2CCCN[C@H]2[C@@H]2C[C@H]1[C@H]1CCCCN1C2` [Aloperine], the “scaled lipid accumulation score” value is, setting by setting: under setting [2], inactive: 0.028; under setting [3], inactive: 0.068. Consider `C[N+]1(C)[C@@H]2CC[C@H]1C[C@@H](OC(=O)C(CO)c1ccccc1)C2` (stereo not given in full) [Atropine methyl nitrate], for which, under setting [3], the “scaled lipid accumulation score” value is inactive: ≤ 0. On to `C[N+]1(C)[C@@H]2CC[C@H]1C[C@@H](OC(=O)C(CO)c1ccccc1)C2` (stereo not given in full) [Methylatropine nitrate], for which the “scaled lipid accumulation score” value was inactive: ≤ 0. In the case of `C[N+]1(C)[C@@H]2CC[C@H]1C[C@@H](OC(=O)C(CO)c1ccccc1)C2` (stereo not given in full) [Atropine methyl bromide], the “scaled lipid accumulation score” value under setting [3] is inactive: ≤ 0.

For the compound `CN1C[C@H](C(=O)N[C@]2(C)O[C@@]3(O)[C@@H]4CCCN4C(=O)[C@H](Cc4ccccc4)N3C2=O)C[C@@H]2c3cccc4[nH]cc(c34)C[C@H]21` [Dihydroergotamine mesylate], the “scaled lipid accumulation score” value is, setting by setting: (library stock concentration: 2.9 mM) inactive: ≤ 0; under setting [3], inactive: 0.16 and inactive: 0.216. As for `CN1C[C@H](C(=O)N[C@]2(C)O[C@@]3(O)[C@@H]4CCCN4C(=O)[C@H](Cc4ccccc4)N3C2=O)C[C@@H]2c3cccc4[nH]cc(c34)C[C@H]21` [Dihydroergotamine tartrate], the “scaled lipid accumulation score” value was inactive: 0.119. As to `O=C1NCN(c2ccccc2)C12CCN(CC1COc3ccccc3O1)CC2` (stereo not given) [Spiroxatrine], the “scaled lipid accumulation score” value by setting is: (library stock concentration: 5.3 mM) inactive: ≤ -0.006; under setting [3], inactive: 0.259 and inactive: 0.158.

In the case of `CC1C2Cc3ccc(O)cc3C1(C)CCN2CC1CC1` (single isomer, unassigned; (+)) [(+)-Cyclazocine], the “scaled lipid accumulation score” value under setting [3] is inactive: 0.53. Take `c1ccc2nc(N3CCNCC3)ccc2c1` [Quipazine maleate]: where the note is “library stock concentration: 6.1 mM”, the “scaled lipid accumulation score” value is inactive: 0.24. On to `c1ccc2nc(N3CCNCC3)ccc2c1` [Quipazine dimaleate], for which the “scaled lipid accumulation score” value under setting [3] is inactive: 0.262. As to `c1ccc2nc(N3CCNCC3)ccc2c1` [Quipazine dimaleate salt], the “scaled lipid accumulation score” value is inactive: 0.306.

Turning to `C[N+](C)(C)CCCCCCCCCC[N+](C)(C)C` [Decamethonium Bromide], the “scaled lipid accumulation score” value is inactive: ≤ 0 under setting [2] and inactive: 0.026 under setting [3]. Turning to `C[N+](C)(C)CCCCCCCCCC[N+](C)(C)C` [Decamethonium dibromide], the “scaled lipid accumulation score” value under setting [3] was inactive: ≤ -0.07. On to `C[N+](C)(C)CCCCCCCCCC[N+](C)(C)C` [Decamethonium bromide], for which the “scaled lipid accumulation score” value is inactive: 0.052. The “scaled lipid accumulation score” value (library stock concentration: 4.8 mM) was inactive: ≤ 0. On to `CCCCC/C=C\C/C=C\C/C=C\C/C=C\CCCC(=O)NCCF` [Arachidonoyl-2'-Fluoroethylamide], for which, under setting [1], the “scaled lipid accumulation score” value is inactive: ≤ 0. Consider `O=C(O)CNC(=O)c1c(O)c2ccccc2n(Cc2ccccc2)c1=O`, for which the “scaled lipid accumulation score” value by setting is: (library stock concentration: 80 uM) inactive: ≤ 0; (library stock concentration: 400 uM) inactive: ≤ 0; (library stock concentration: 2 mM) inactive: ≤ 0; under setting [2], inactive: 0.072; under setting [3], inactive: ≤ 0. Regarding `Cc1c(C(=O)c2cccc3ccccc23)c2cccc3c2n1[C@H](CN1CCOCC1)CO3` [WIN 55,212-2 mesylate], under setting [1], the “scaled lipid accumulation score” value was inactive: ≤ -0.021. `N=C(N)c1ccc(CS(=O)(=O)F)cc1` [4-Amidinophenylmethanesulfonyl fluoride hydrochloride]: the “scaled lipid accumulation score” value under setting [3] is inactive: 0.067. The same measure, in the same setting: to `CCCN(C/C=C/I)C1CCc2ccc(O)cc2C1` (stereo not given) [7-Hydroxy-PIPAT maleate] belongs inactive: 0.087. Same read-out and setting: to `CC(=O)OC1CN2CCC1CC2` (stereo not given) belongs inactive: 0.001; to `NC1(c2ccccc2Cl)CCCCC1=O` (stereo not given) [Norketamine hydrochloride], inactive: ≤ 0.

`O=C1NC(=O)c2c1c1c3ccccc3[nH]c1c1[nH]c3ccccc3c21` [Arcyriaflavin A]: under setting [3], the “scaled lipid accumulation score” value was inactive: 0.434. For `Cl.Cl.Fc1ccc(C(OCCN2CCN(CCCc3ccccc3)CC2)c2ccc(F)cc2)cc1`, the “scaled lipid accumulation score” value is active: 0.864. `COc1cccc(C2(O)CCCCC2CN(C)C)c1` (stereo not given) [Tramadol hydrochloride]: the “scaled lipid accumulation score” value (library stock concentration: 6.7 mM) is inactive: ≤ 0. Turning to `COc1cccc(C2(O)CCCCC2CN(C)C)c1` (stereo not given) [Tramadol HCl], the “scaled lipid accumulation score” value under setting [4] was inactive: ≤ 0. Turning to `COc1cccc(C2(O)CCCCC2CN(C)C)c1` (stereo not given) [Tramadol], the “scaled lipid accumulation score” value under setting [3] is inactive: 0.009.

For `CC(CCc1ccccc1)NC(C)C(O)c1ccc(O)cc1` (stereo not given) [Nylidrin hydrochloride], the “scaled lipid accumulation score” value was inactive: 0.278 (library stock concentration: 6 mM); inactive: 0.645 and inactive: 0.289 under setting [3].
